# Laboratory results from article PMC11856857, “Protease-Resistant, Broad-Spectrum Antimicrobial Peptides with High Antibacterial and Antifungal Activity” (Life, 2025).
# Assays:
# Settings in all cases: broth microdilution, 1024 to 0.125 µg/mL, triplicate
# S. aureus ATCC 29213 = format: cell-based, Staphylococcus aureus
# E. coli ATCC 25922 = format: cell-based, Escherichia coli
# P. aeruginosa ATCC 27853 = format: cell-based, Pseudomonas aeruginosa
sequence,measurement,setting,value
"RLLRLLLRLLR [D/L-TN6, TN6 template, arginine in L-form, leucine in L- and D-forms]",MIC S. aureus,S. aureus ATCC 29213,8 µg/mL
same,MIC E. coli,E. coli ATCC 25922,8 µg/mL
same,MIC P. aeruginosa,P. aeruginosa ATCC 27853,16 µg/mL
